# Results published in the supplement of paper PMC3334620.
# In all, about 33,000 sequences were measured (“E-score (-0.5 to 0.5)”: median about -0.012, highest 2% from about 0.27 on). The list shows a part of the results.
# Target: T1, Vhr1 (UniProt P40522)
# T1 sequence: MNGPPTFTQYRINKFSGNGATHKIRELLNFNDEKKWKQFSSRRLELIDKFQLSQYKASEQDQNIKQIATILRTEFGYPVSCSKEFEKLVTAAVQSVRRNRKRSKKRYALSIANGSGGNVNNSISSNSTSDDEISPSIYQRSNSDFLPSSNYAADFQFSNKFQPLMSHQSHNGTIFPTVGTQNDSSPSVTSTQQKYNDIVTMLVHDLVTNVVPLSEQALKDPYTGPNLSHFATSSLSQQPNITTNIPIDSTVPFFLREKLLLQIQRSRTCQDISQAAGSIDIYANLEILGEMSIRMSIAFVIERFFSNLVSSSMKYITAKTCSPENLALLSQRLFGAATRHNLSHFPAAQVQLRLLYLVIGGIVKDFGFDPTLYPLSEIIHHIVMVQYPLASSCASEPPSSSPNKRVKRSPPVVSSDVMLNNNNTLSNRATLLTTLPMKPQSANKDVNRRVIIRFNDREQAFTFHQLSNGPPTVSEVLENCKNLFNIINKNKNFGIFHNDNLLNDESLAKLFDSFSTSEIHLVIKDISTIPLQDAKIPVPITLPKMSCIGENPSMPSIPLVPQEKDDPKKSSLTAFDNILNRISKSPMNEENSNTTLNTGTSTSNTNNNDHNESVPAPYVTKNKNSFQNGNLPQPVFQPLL
# Assay: PBM E-score (8-mer binding enrichment) (E-score (-0.5 to 0.5)); higher = stronger / more preferred TF binding; most listed sequences are background and not binding sites
# Details: protein concentration: 200 nM; construct: GST-full length
# Protocol: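 Universal 'all 10-mer' protein binding microarrays (Agilent AMADID 015681) probed with GST-tagged S. cerevisiae TFs (full-length or DBD) made by in vitro transcription/translation (PURExpress), about 100-200 nM. Bound TF was detected with fluorescent anti-GST. Each ungapped 8-mer (which stands for itself and its reverse complement) is scored by the PBM enrichment score (E-score), a modified Wilcoxon-Mann-Whitney statistic from -0.5 to +0.5, computed with the Universal PBM Analysis Suite. Scale: above 0.35 generally sequence-specific binding.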
row,Sequence,PBM E-score
1,AAGGGATC,-0.0523
2,CGGAGATA,0.01
3,AGTCCAGA,0.0276
4,AGGAGCTA,-0.252
5,ATCCCGTA,0.0388
6,CAGCACCG,0.109
7,CATGTGTA,0.198
8,AGGCCAAG,-0.147
9,AGGAGCAC,0.0155
10,AACAGGGA,-0.041
11,CGAATGCA,-0.132
12,CAGAGTGC,0.0334
13,AGCCTCTA,-0.251
14,CCCACCCC,0.389
15,ACATCTTG,0.0412
16,AGATATTC,-0.119
17,AATAAACG,-0.197
18,GGCTCGTA,0.237
19,GTTTACAA,-0.0707
20,CTCATTAC,-0.00531
21,TCCGCCAA,-0.0919
22,GGCATGCA,-0.0207
23,ACGGCCTC,-0.0149
24,ACTTGCTG,0.0601
25,AACCCTAC,-0.122

row,Sequence,PBM E-score
1,ATGGACCC,-0.0068
2,ATTATACG,0.303
3,AAGGGCAT,-0.197
4,AGTCCGAT,-0.026
5,AATCACAA,0.187
6,GTCTCAAC,0.104
7,ACTGGTCA,0.0911
8,GATTATAA,0.0655
9,AGCGGTAC,-0.0927
10,AAAGGATA,-0.0494
11,ATTGAGAG,0.0673
12,GCAGAGAA,-0.168
13,GCCGGTCC,-0.0382
14,CGGCTCAC,0.168
15,CCGGGGAA,-0.184
16,CGCGAGCC,0.252
17,AATGGAAA,-0.116
18,CAGTAGGG,-0.0814
19,ATAGTCGG,0.0546
20,GGCGCGGA,0.0292
21,ACGTCCCC,-0.0926
22,AGTGTGAC,0.209
23,ATCCTAGA,-0.158
24,AGGGTACG,-0.117
25,ACAGTAGA,0.0362

row,Sequence,PBM E-score
1,CAGTACAG,0.0272
2,AATCCCCT,-0.0554
3,AATTAGTC,0.29
4,GCCCAACA,-0.126
5,CAGGCTTC,-0.0775
6,CAGTGCGA,0.0486
7,CCGAAGCC,-0.108
8,AGCTGATG,0.129
9,CCGGACTC,0.303
10,CATTCGGG,0.0198
11,AGCAAGTG,-0.0415
12,ACTAGCTC,0.0864
13,GCGCGTCA,0.0521
14,CCGTCTCA,0.0978
15,AATTTATA,-0.00261
16,CATGAAGG,0.11
17,ATTGGAGG,-0.123
18,CCGTCGCA,0.0831
19,CAATACGG,-0.0474
20,AAGGCCTT,-0.364
21,ATGCGACC,0.142
22,CGACTACC,0.22
23,GCATCCAA,-0.223
24,CTTGTTAC,-0.151
25,ATGGTTAA,0.198

row,Sequence,PBM E-score
1,CATCTTAG,-0.0177
2,GTTTACCA,0.0758
3,ATCGATAG,0.0675
4,ACTCCTGC,0.192
5,AAGCAGAG,-0.194
6,ATCTCGGG,0.178
7,GCAGACCA,-0.0259
8,ACGCGACA,0.0104
9,GCACTTTA,-0.249
10,ACGCGACT,0.235
11,GCGTGGTA,0.0698
12,ACGAGGAA,0.142
13,ATCACCTC,0.0402
14,GTAGGGGA,-0.0734
15,ATGCCAAT,0.0469
16,AGCGTCCC,-0.282
17,GAATAAAC,-0.00787
18,CAAGATCC,0.0159
19,CACCCAAG,0.014
20,GAGAACTA,-0.0914
21,TCATAGCA,0.158
22,CCGACGAG,0.0204
23,CGGGGCAG,-0.0605
24,CTTGAATC,0.13
25,CTGGAGGA,-0.0803

row,Sequence,PBM E-score
1,AACCTAGG,-0.0726
2,GCCGGGAA,-0.111
3,AAACGACG,0.128
4,CAGCATCC,-0.136
5,GATCCTGA,0.0271
6,CCGAGGGC,0.0794
7,TACCCCCA,-0.00494
8,CGTGCTGA,0.0493
9,AGCCTTAC,-0.235
10,ACCGGTCC,-0.199
11,AGCAGACC,-0.0502
12,AAGTCGTG,0.106
13,GACTAACA,0.354
14,CCTCTGTA,-0.16
15,GAGGTAGC,-0.157
16,ACAAAACG,0.142
17,AATAGTGT,0.146
18,CGGTCACA,0.0193
19,CCTATGCC,-0.0314
20,CACGGCCA,0.106
21,TGCGGTAA,-0.0231
22,GGAGGGGA,0.219
23,GCCAACAA,-0.0809
24,CCAGCAAG,-0.0664
25,AATCGATC,0.143

row,Sequence,PBM E-score
1,GCAAGTAC,-0.109
2,GAAAGGGC,-0.182
3,AAGACAAG,-0.0934
4,CTTGTCAC,0.00301
5,CGTGGGTA,0.069
6,CTGAGTCC,0.292
7,AGATGTGG,-0.0571
8,AGCATGAC,0.219
9,CCTAAACA,-0.0387
10,ATATCCAA,0.105
11,CCGAGCGC,0.126
12,AATTGTTC,0.0494
13,TAGTCTAA,-0.0119
14,TTCTCCAA,-0.202
15,GCAAGGCC,-0.139
16,CGCTAACG,-0.0402
17,GGTTAAAA,-0.139
18,CTACTACC,0.0262
19,TGCCTTAA,-0.296
20,ACACGTAA,-0.144
21,CACACTGA,0.0767
22,ATATAGGG,0.107
23,GTCGCCCA,0.0863
24,GGGAGACC,-0.232
25,GTGATGTA,0.108

row,Sequence,PBM E-score
1,AACCCGCC,0.136
2,CTCACGCC,0.239
3,GTACAGAA,-0.0922
4,CCGTATCG,-0.054
5,CCGCGCAG,-0.0663
6,GGGCCACA,0.0234
7,CCGTCGTC,-0.0927
8,ATTCGCGC,0.243
9,CAGACGAG,-0.104
10,CGCTTAAC,-0.225
11,AGAAGCCC,-0.0955
12,CATAGGTC,0.118
13,GGGCCCCA,-0.156
14,CAAGTACG,-0.166
15,AGTCCTCA,0.0606
16,ATCCTGCA,0.172
17,CGCAGACG,0.0107
18,GACCGATC,-0.0904
19,ATTGAATG,0.04
20,AAGGTCCA,-0.0882
21,GTGTTGAA,-0.0521
22,AACCTATC,-0.103
23,AAAGCTCT,-0.374
24,CTTGGCTC,-0.0425
25,AGCGGAGG,-0.142

row,Sequence,PBM E-score
1,GGCGTTAC,-0.119
2,ACCTTAGG,-0.166
3,ACGTAGGC,-0.183
4,AGATACCG,-0.0775
5,CTTACATA,-0.0304
6,CAATCGTC,0.144
7,ACGAAGGG,0.0329
8,CCGTCACA,-0.0936
9,TACTTTCA,-0.147
10,CCCTACTC,-0.067
11,AATCTACA,0.0335
12,AGTGACAC,0.215
13,CCCCCTTA,-0.195
14,AGCTTGAC,0.0387
15,GAATCACA,0.341
16,CGCATAGA,0.0797
17,AAACGCTT,-0.245
18,TCTTAACA,-0.0919
19,CACTTGAA,-0.042
20,AGGAGCAT,-0.0306
21,AGTTAACC,0.053
22,CGAGACGC,-0.0341
23,AATACATT,0.0691
24,CGTGACTA,0.419
25,CTAATCGA,0.151

row,Sequence,PBM E-score
1,AATACCGA,0.00846
2,ACTCTGAA,0.043
3,AGATAAGA,0.00412
4,CTTACAGA,-0.204
5,AGCGCAGC,-0.164
6,CAATGCAG,-0.00246
7,CCCGATGA,0.273
8,TATGGCGA,0.014
9,ATAGAGAA,-0.123
10,CAGTCAAA,-0.0678
11,ACAGGCAC,0.0123
12,CCAAATGC,-0.119
13,AGTACTAT,0.149
14,ATTACTCA,0.29
15,ACTATGCC,0.0937
16,CCCTGCGG,0.00618
17,AACACTCT,0.00708
18,ACAATGTC,0.167
19,AAAAGTGG,-0.0645
